From publication PMC5241739, “Structure of the Toll/Interleukin-1 Receptor (TIR) Domain of the B-cell Adaptor That Links Phosphoinositide Metabolism with the Negative Regulation of the Toll-like Receptor (TLR) Signalosome*^([image sbox.jpg])” (The Journal of Biological Chemistry, 2016) come the findings set out here.

Amino acid sequences for entries named in this document (tags omitted). A change or cut given only in a name is not applied to a line headed by its entry. Residues count along the entry.
UniProt P58753: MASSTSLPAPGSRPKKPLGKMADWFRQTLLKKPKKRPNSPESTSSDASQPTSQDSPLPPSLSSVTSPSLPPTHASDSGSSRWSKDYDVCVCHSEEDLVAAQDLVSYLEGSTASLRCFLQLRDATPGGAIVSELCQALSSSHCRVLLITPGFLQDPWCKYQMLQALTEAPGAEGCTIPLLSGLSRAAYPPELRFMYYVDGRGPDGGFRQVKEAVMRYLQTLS
UniProt Q99836: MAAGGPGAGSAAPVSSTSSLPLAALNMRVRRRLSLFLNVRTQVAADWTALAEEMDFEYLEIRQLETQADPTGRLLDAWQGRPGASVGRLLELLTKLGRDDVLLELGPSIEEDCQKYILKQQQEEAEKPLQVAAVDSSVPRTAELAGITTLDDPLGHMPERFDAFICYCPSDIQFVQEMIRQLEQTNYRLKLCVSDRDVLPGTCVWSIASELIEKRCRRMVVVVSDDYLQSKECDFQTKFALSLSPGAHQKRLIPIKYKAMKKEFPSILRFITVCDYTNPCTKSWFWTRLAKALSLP
UniProt Q86XR7: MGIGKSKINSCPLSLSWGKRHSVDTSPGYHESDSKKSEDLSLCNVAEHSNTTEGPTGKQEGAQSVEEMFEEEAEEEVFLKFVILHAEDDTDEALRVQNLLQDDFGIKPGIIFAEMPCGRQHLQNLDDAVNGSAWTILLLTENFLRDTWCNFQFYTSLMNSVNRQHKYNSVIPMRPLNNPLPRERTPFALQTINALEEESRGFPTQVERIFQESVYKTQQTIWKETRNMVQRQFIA
UniProt O00206, residues 671-820: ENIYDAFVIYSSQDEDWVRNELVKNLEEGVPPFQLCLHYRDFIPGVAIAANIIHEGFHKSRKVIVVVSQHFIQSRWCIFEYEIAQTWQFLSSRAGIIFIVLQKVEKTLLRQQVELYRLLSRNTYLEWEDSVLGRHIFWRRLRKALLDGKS
UniProt O60603, residues 636-784: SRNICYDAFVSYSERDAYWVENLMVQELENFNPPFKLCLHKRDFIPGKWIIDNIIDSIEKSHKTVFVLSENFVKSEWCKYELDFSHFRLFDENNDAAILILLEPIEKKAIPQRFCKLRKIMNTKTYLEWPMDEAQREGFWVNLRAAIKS

In test [1] the target is T1, FLAG-BCAP-FL (human) (UniProt Q6ZUJ8).
T1 sequence: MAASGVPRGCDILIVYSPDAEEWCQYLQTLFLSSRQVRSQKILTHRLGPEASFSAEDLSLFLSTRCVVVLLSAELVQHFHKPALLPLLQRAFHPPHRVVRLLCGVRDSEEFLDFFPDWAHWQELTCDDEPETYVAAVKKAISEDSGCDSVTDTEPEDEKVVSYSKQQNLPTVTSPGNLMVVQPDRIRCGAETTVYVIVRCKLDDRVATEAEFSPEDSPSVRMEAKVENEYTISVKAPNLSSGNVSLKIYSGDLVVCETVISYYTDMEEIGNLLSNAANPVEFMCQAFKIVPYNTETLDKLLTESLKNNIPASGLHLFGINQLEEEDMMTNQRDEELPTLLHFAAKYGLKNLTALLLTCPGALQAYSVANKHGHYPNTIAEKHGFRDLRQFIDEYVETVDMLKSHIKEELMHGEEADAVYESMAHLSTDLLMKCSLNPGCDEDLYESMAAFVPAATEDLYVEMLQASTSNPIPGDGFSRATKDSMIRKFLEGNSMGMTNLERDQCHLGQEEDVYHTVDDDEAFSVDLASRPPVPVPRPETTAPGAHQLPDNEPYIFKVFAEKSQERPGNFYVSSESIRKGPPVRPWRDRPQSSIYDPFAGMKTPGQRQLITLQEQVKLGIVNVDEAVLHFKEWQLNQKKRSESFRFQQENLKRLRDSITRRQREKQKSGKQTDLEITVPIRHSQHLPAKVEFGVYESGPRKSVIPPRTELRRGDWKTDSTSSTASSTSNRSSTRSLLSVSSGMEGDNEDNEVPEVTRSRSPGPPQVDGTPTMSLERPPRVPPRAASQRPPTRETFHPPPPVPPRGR
The test can be described thus: co-IP; HEK 293T cells transfected 24 h, lysate precipitated with anti-FLAG M2 beads 2 h at 4 °C, Western blot for the tags; with or without co-expressed Syk, Lyn or PLCγ2. On the technique in general: Immunoblotting shows a protein as a band on a membrane.

Test [2] addresses T2, BCAP-TDA, the first 434 amino acids of human BCAP (human) (UniProt Q6ZUJ8).
T2 sequence: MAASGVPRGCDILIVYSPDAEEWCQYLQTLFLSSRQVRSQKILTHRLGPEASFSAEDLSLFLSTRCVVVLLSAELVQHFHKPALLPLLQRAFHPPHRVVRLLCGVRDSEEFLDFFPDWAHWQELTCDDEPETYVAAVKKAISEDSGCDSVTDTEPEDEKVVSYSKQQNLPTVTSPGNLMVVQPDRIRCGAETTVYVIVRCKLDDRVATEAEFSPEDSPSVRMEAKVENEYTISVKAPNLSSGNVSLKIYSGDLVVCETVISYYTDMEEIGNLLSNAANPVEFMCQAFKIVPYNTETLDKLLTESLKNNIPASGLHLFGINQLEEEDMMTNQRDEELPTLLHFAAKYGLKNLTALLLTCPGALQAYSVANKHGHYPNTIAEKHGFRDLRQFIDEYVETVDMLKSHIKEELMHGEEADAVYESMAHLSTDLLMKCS
The test can be described thus: two-hybrid; Matchmaker system; bait GAL4-DBD in AH109 mated with prey GAL4-AD in Y187; growth on SD/−Leu/−Trp/−His/−Ade + Xα-Gal + 5 mM 3-AT.

For a further test, the target named is TIRAP-FLAG (human) (UniProt P58753). Put plainly: co-IP; HEK 293T cells transfected 24 h, lysate precipitated with anti-FLAG M2 beads 2 h at 4 °C, Western blot for the tags; with or without co-expressed Syk, Lyn or PLCγ2.
Test [3] has as its target T1, FLAG-BCAP-FL (human). The description is as above. This is another data set of the same source.
A further test concerns the target T3, FLAG-SARM (UniProt Q6SZW1).
T3 sequence: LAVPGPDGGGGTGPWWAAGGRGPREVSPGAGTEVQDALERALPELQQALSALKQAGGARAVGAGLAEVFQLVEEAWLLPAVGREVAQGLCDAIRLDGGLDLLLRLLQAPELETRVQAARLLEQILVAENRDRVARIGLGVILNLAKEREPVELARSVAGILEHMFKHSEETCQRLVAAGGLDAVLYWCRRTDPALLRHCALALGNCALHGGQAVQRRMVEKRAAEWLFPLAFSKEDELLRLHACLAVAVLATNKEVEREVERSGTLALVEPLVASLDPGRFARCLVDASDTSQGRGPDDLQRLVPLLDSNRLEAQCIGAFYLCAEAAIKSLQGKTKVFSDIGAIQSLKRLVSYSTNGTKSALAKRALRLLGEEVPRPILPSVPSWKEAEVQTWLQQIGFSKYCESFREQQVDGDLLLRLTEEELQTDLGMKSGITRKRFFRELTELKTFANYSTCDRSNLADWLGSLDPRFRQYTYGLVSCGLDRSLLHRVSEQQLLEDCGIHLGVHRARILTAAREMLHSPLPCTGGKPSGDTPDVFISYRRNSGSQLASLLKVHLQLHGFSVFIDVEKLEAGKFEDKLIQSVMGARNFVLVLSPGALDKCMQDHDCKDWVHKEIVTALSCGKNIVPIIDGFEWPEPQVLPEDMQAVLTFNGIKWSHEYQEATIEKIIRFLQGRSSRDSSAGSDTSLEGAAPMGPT
Described as above.

A further test addresses MyD88-FLAG (UniProt Q99836). The description is as above.
Test [4] concerns the target MAL/TIRAP (co-immunoprecipitation of supplemental Fig. 3) (human) (UniProt P58753). Put plainly: co-IP; co-immunoprecipitation of BCAP mutants and MAL/TIRAP (supplemental Fig. 3); methods not shown.

Where a chain is given by its changes, count along the chain named. Numbers in names are those of the source. Like-named read-outs stand apart in the source and are kept apart here. Results are given in words; binding and its absence hold for the method and conditions named. For some of these results: In cells and extracts the contact can be indirect. Some binding calls cover weakened binding; strength is not graded here. For some of these results: Where a sequence is shown, tags or fusion partners need not be part of it.

As to Myc-TRAM (from UniProt Q86XR7 1-235), the binding entry in the test with FLAG-BCAP-FL (human) [1] was “no binding”. For the molecule “TIR domain of TLR4 (residues 671–820) (from UniProt O00206 671-820) (domain or fragment)”, the binding entry in test [2] is recorded as “binds”.

Consider “MAL/TIRAP S180L, full-length construct (yeast two-hybrid prey) (from UniProt P58753 1-221)”, for which the binding result in test [2] was “binds”. Still for that read-out and setting: with “MAL/TIRAP D96N, full-length construct (yeast two-hybrid prey) (from UniProt P58753 1-221)” the entry was “binds”. For “Myc-MyD88-WT (from UniProt Q99836 1-296)”, the binding entry with FLAG-BCAP-FL (human) [1] is listed as “binds”.

As for “MAL/TIRAP, full-length construct (yeast two-hybrid prey) (from UniProt P58753 1-221)”, the binding result in test [2] is “binds”. Turning to “TIR domain of TLR2 (residues 636–784) (from UniProt O60603 636-784) (domain or fragment)”, the binding result in test [2] was “binds”.

B1: human PLCγ2 (PLCγ2-V5) (enzyme, UniProt P16885 1-1265)
chain: MSTTVNVDSLAEYEKSQIKRALELGTVMTVFSFRKSTPERRTVQVIMETRQVAWSKTADKIEGFLDIMEIKEIRPGKNSKDFERAKAVRQKEDCCFTILYGTQFVLSTLSLAADSKEDAVNWLSGLKILHQEAMNASTPTIIESWLRKQIYSVDQTRRNSISLRELKTILPLINFKVSSAKFLKDKFVEIGAHKDELSFEQFHLFYKKLMFEQQKSILDEFKKDSSVFILGNTDRPDASAVYLHDFQRFLIHEQQEHWAQDLNKVRERMTKFIDDTMRETAEPFLFVDEFLTYLFSRENSIWDEKYDAVDMQDMNNPLSHYWISSSHNTYLTGDQLRSESSPEAYIRCLRMGCRCIELDCWDGPDGKPVIYHGWTRTTKIKFDDVVQAIKDHAFVTSSFPVILSIEEHCSVEQQRHMAKAFKEVFGDLLLTKPTEASADQLPSPSQLREKIIIKHKKLGPRGDVDVNMEDKKDEHKQQGELYMWDSIDQKWTRHYCAIADAKLSFSDDIEQTMEEEVPQDIPPTELHFGEKWFHKKVEKRTSAEKLLQEYCMETGGKDGTFLVRESETFPNDYTLSFWRSGRVQHCRIRSTMEGGTLKYYLTDNLTFSSIYALIQHYRETHLRCAEFELRLTDPVPNPNPHESKPWYYDSLSRGEAEDMLMRIPRDGAFLIRKREGSDSYAITFRARGKVKHCRINRDGRHFVLGTSAYFESLVELVSYYEKHSLYRKMRLRYPVTPELLERYNMERDINSLYDVSRMYVDPSEINPSMPQRTVKALYDYKAKRSDELSFCRGALIHNVSKEPGGWWKGDYGTRIQQYFPSNYVEDISTADFEELEKQIIEDNPLGSLCRGILDLNTYNVVKAPQGKNQKSFVFILEPKQQGDPPVEFATDRVEELFEWFQSIREITWKIDTKENNMKYWEKNQSIAIELSDLVVYCKPTSKTKDNLENPDFREIRSFVETKADSIIRQKPVDLLKYNQKGLTRVYPKGQRVDSSNYDPFRLWLCGSQMVALNFQTADKYMQMNHALFSLNGRTGYVLQPESMRTEKYDPMPPESQRKILMTLTVKVLGARHLPKLGRSIACPFVEVEICGAEYDNNKFKTTVVNDNGLSPIWAPTQEKVTFEIYDPNLAFLRFVVYEEDMFSDPNFLAHATYPIKAVKSGFRSVPLKNGYSEDIELASLLVFCEMRPVLESEEELYSSCRQLRRRQEELNNQLFLYDTHQNLRNANRDALVKEFSVNENQLQLYQEKCNKRLREKRVSNSKFYS
Regarding B1, the binding result is “binds” in the test with TIRAP-FLAG (human), “binds” with FLAG-BCAP-FL (human) [3], “no binding” with FLAG-SARM and “binds” with MyD88-FLAG.

B2: BCAP (wild type, co-immunoprecipitation of supplemental Fig. 3) (protein, UniProt Q6ZUJ8 1-805)
chain: T1 sequence
Consider B2, for which the binding result in test [4] was “binds”.

B3: BCAP Pro-49 mutated to alanine (protein, UniProt Q6ZUJ8 1-805)
chain: T1 sequence with P49A
As to B3, the binding result in test [4] is listed as “binds”.

B4: BCAP Pro-49 mutated to aspartic acid (protein, UniProt Q6ZUJ8 1-805)
chain: T1 sequence with P49D
With B4, the binding result in test [4] is “binds”.

B5: BCAP L401A (protein, UniProt Q6ZUJ8 1-805)
chain: T1 sequence with L401A
For the molecule B5, in test [4], the binding result is reported as “binds”.

B6: Myc-BCAP-FL (protein, UniProt Q6ZUJ8 1-805)
chain: T1 sequence
B6: the binding result in the test with FLAG-SARM is “binds”.
